A number of entries come with more than one value. This is not the full list of results. The source may hold further records. Values given together are repeated measurements across runs, samples, wells, individuals or studies.
Legend:
Assay type in all cases: toxicity, cell-based
HEK-293T = experiment: Multiplex assay against HEK293T; conditions: human
Procedure, shortened: (§1)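 Four dyes were applied at seeding to live cells: Hoechst33342, BioTracker Green Microtubule Cytoskeleton Dye, MitoTracker Red and Annexin V Alexa Fluor 680. Imaging after compound addition used a CQ1 microscope at 37°C and 5% CO2. CellPathfinder machine-learning gating then sorted cells into Hoechst high-intensity objects or normal cells, normal cells into healthy, pyknosed or fragmented nuclei, and pyknosed cells into mitotic or apoptotic, with tubulin, mitochondrial-mass and membrane-permeability phenotypes given as per cents of healthy-nucleus cells.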

U2OS = experiment: Multiplex assay against U2OS; conditions: human; procedure, shortened: as §1
Fibroblast = experiment: Multiplex assay against human fibroblast; procedure, shortened: as §1
[1] = 12 h, 1 µM, compound concentration 1 uM
[2] = 12 h, 10 µM, compound concentration 10 uM
[3] = 24 h, 10 µM, compound concentration 10 uM
[4] = 48 h, 1 µM, compound concentration 1 uM
[5] = 48 h, 10 µM, compound concentration 10 uM
[6] = 24 h, 1 µM, compound concentration 1 uM

Structure (SMILES): O=C1NC(NC23CC4CC(CC(C4)C2)C3)=N/C1=C\c1ccc2ncsc2c1
- Population Healthy Nuclei (%) (HEK-293T; [1]): 28.22% and 9.29%
- Population Hoechst High Intensity Objects (%) (U2OS; [2]): 47.97% and 15.68%
- Population Hoechst High Intensity Objects (%) (U2OS; [3]): 39.89% and 13.1%
- Population Pyknosed Nuclei (%) (U2OS; [3]): 23.61% and 6.78%
- Population Pyknosed Nuclei (%) (U2OS; [4]): 5.32% and 21.47%
- Population Pyknosed Nuclei (%) (U2OS; [5]): 28.45% and 8.17%

Structure (SMILES): C=CCN1C[C@H](C(=O)N(CCCN(C)C)C(=O)NCC)C[C@@H]2c3cccc4[nH]cc(c34)C[C@H]21 [CABERGOLINE]
- Population Pyknosed Nuclei (%) (Fibroblast; [1]): 7% and 33%
- Population Mitotic Cells (%) (U2OS; [1]): 13% and 42%
- Population Mitotic Cells (%) (U2OS; [3]): 34% and 11%

Structure (SMILES): O=C(O)C(F)(F)F.O=C1NC(=O)/C(=C/c2c[nH]c(=O)c(-c3ccc(N4CCNCC4)nc3)c2)S1
- Population Healthy Nuclei (%) (HEK-293T; [1]): 58.84% and 13.18%
- Population Membrane Permeable-Phenotype (%) (HEK-293T; [1]): 0.45% and 11.76%
- Population Mitochondria Different-Phenotype (%) (HEK-293T; [1]): 40.36% and 11.76%
- Population Tubulin-Different-Phenotype (%) (HEK-293T; [1]): 5.83% and 17.65%
- Population Mitochondria Different-Phenotype (%) (HEK-293T; [2]): 34.29% and 9.26%
- Population Tubulin-Different-Phenotype (%) (HEK-293T; [2]): 3.33% and 33.33%
- Population Pyknosed Nuclei (%) (HEK-293T; [6]): 22.16% and 71.22%
- Population Tubulin-Different-Phenotype (%) (HEK-293T; [6]): 16.52% and 2.78%
- Total Cell Count (HEK-293T; [6]): 583 and 139
- Population Pyknosed Nuclei (%) (HEK-293T; [4]): 11.19% and 35.8%
- Population Tubulin-Different-Phenotype (%) (HEK-293T; [4]): 1.51% and 36.79%
- Total Cell Count (HEK-293T; [4]): 1386 and 176
- Population Tubulin-Different-Phenotype (%) (HEK-293T; [5]): 0.44% and 12.35%
- Total Cell Count (HEK-293T; [5]): 1795 and 399
- Population Fragmented Nuclei (%) (Fibroblast; [2]): 17.2% and 5.16%
- Population Tubulin-Different-Phenotype (%) (Fibroblast; [2]): 8.55% and 25.73%
- Population Mitochondria Different-Phenotype (%) (Fibroblast; [5]): 16.67% and 2.93%
- Population Tubulin-Different-Phenotype (%) (Fibroblast; [5]): 1.79% and 17.56%

Structure (SMILES): O=C(NCC(=O)N1CC[C@H](N[C@H]2CC[C@@](O)(c3ccc(-c4ncccn4)cn3)CC2)C1)c1cccc(C(F)(F)F)c1 [PF-4136309]
- Population Membrane Permeable-Phenotype (%) (Fibroblast; [1]): 1% and 13%
- Population Membrane Permeable-Phenotype (%) (Fibroblast; [6]): 1% and 16%
- Population Mitotic Cells (%) (U2OS; [1]): 20% and 6%
- Population Mitotic Cells (%) (U2OS; [5]): 30% and 7%

Structure (SMILES): CCc1cc2cc(NS(=O)(=O)c3ccc(C#N)cc3)ccc2n(CC)c1=O
- Population Membrane Permeable-Phenotype (%) (Fibroblast; [2]): 1% and 12%
- Population Membrane Permeable-Phenotype (%) (Fibroblast; [5]): 1% and 18%
- Population Mitotic Cells (%) (U2OS; [3]): 4% and 20%

Structure (SMILES): NC1=NC(=O)/C(=C2\CCNC(=O)c3[nH]c4ccccc4c32)N1
- Population Healthy Nuclei (%) (HEK-293T; [1]): 62.27% and 19.71%
- Population Mitochondria Different-Phenotype (%) (HEK-293T; [1]): 47.46% and 14.81%
- Population Tubulin-Different-Phenotype (%) (HEK-293T; [1]): 5.93% and 29.63%
- Population Healthy Nuclei (%) (HEK-293T; [2]): 62.42% and 13.99%
- Population Tubulin-Different-Phenotype (%) (HEK-293T; [2]): 6.47% and 30%
- Total Cell Count (HEK-293T; [6]): 603 and 156
- Population Tubulin-Different-Phenotype (%) (HEK-293T; [4]): 0.96% and 27.34%
- Total Cell Count (HEK-293T; [4]): 1327 and 200
- Population Pyknosed Nuclei (%) (HEK-293T; [5]): 11.96% and 38.97%
- Population Tubulin-Different-Phenotype (%) (HEK-293T; [5]): 1.3% and 25.6%
- Total Cell Count (HEK-293T; [5]): 813 and 215
- Population Fragmented Nuclei (%) (Fibroblast; [1]): 18.79% and 3.67%
- Population Apoptotic (%) (Fibroblast; [2]): 7.02% and 23.08%
- Population Apoptotic (%) (Fibroblast; [4]): 12.5% and 44.44%
- Population Mitochondria Different-Phenotype (%) (Fibroblast; [4]): 15.66% and 1.37%

Structure (SMILES): CC1(COc2ccc3c(c2)ncn3-c2ccc3cccc(N4CCC(N)CC4)c3n2)COC1 [CRENOLANIB]
- Population Apoptotic (%) (Fibroblast; [1]): 61% and 18%
- Population Mitotic Cells (%) (Fibroblast; [6]): 7% and 50%
- Population Apoptotic (%) (Fibroblast; [4]): 75% and 20%
- Population Mitotic Cells (%) (Fibroblast; [4]): 25% and 80%
- Population Mitotic Cells (%) (U2OS; [4]): 12% and 37%

Structure (SMILES): CC(C)(c1ccc(O)cc1)c1ccc(O)cc1 [BISPHENOL A]
- Population Healthy Nuclei (%) (HEK-293T; [1]): 58.23% and 14.46%
- Population Tubulin-Different-Phenotype (%) (HEK-293T; [1]): 5.49% and 29.17%
- Population Healthy Nuclei (%) (HEK-293T; [2]): 58.61% and 18.49%
- Population Tubulin-Different-Phenotype (%) (HEK-293T; [2]): 5.67% and 29.63%
- Population Pyknosed Nuclei (%) (HEK-293T; [6]): 20.53% and 70.56%
- Total Cell Count (HEK-293T; [6]): 566 and 180
- Population Tubulin-Different-Phenotype (%) (HEK-293T; [3]): 14.68% and 1.79%
- Population Mitochondria Different-Phenotype (%) (HEK-293T; [4]): 10.46% and 32.08%
- Population Pyknosed Nuclei (%) (HEK-293T; [4]): 8.97% and 47.26%
- Population Tubulin-Different-Phenotype (%) (HEK-293T; [4]): 1.28% and 46.23%
- Total Cell Count (HEK-293T; [4]): 1339 and 203
- Population Apoptotic (%) (HEK-293T; [5]): 4.35% and 15.28%
- Population Tubulin-Different-Phenotype (%) (HEK-293T; [5]): 0.27% and 15.79%
- Total Cell Count (HEK-293T; [5]): 1309 and 255
- Population Apoptotic (%) (Fibroblast; [6]): 9.76% and 40.91%
- Population Mitochondria Different-Phenotype (%) (Fibroblast; [5]): 15.93% and 2.78%

Structure (SMILES): N#Cc1c(Oc2cccc(OS(=O)(=O)CCCC(F)(F)F)c2)cccc1C(F)(F)F
- Population Hoechst High Intensity Objects (%) (HEK-293T; [2]): 10% and 40%
- Population Hoechst High Intensity Objects (%) (HEK-293T; [3]): 13% and 47%
- Population Hoechst High Intensity Objects (%) (HEK-293T; [5]): 5% and 24%
- Population Membrane Permeable-Phenotype (%) (Fibroblast; [2]): 1% and 13%
- Population Fragmented Nuclei (%) (Fibroblast; [3]): 13% and 40%
- Population Membrane Permeable-Phenotype (%) (Fibroblast; [3]): 4% and 18%
- Population Membrane Permeable-Phenotype (%) (Fibroblast; [4]): 1% and 13%
- Population Membrane Permeable-Phenotype (%) (Fibroblast; [5]): 2% and 23%

Structure (SMILES): Nc1nc(-c2ccco2)c2cnn(Cc3ccccc3F)c2n1
- Population Fragmented Nuclei (%) (Fibroblast; [1]): 10% and 31%
- Population Fragmented Nuclei (%) (Fibroblast; [6]): 9% and 29%
- Population Membrane Permeable-Phenotype (%) (Fibroblast; [3]): 1% and 15%
- Population Mitotic Cells (%) (U2OS; [6]): 3% and 15%
- Total Cell Count (U2OS; [4]): 462 and 141

Structure (SMILES): O=C(O)CCC/C=C\CC1C(O)CC(O)C1/C=C/C(O)COc1cccc(Cl)c1 (configuration not stated) [CLOPROSTENOL]
- Population Fragmented Nuclei (%) (U2OS; [2]): 28% and 9%
- Population Mitotic Cells (%) (U2OS; [2]): 7% and 54%

Structure (SMILES): Cc1cc(=O)n(C)c2cc(N3C(=O)CC[C@H](NS(=O)(=O)CC(C)C)[C@H]3c3ccc(Cl)cc3)ccc12
- Population Membrane Permeable-Phenotype (%) (Fibroblast; [6]): 1% and 13%
- Population Mitotic Cells (%) (U2OS; [4]): 22% and 5%

From ChEMBL document CHEMBL5724801, “EUbOPEN Chemogenomics Library - Multiplex” (2024)
